# Some of the results follow.
# B1: Tap1 (Sordaria macrospora), Q50IV4 (protein)
# chain: MSHHHHHHHHYTLHLRLINDTSDTLTLVEQTSWWGKNTIWSQVRSTGVHVLSMAASGSSGMLRFQTSKGDFFAVAVGVHNYKRWCDVLVDTADEAPLTKLHPKYYDDKDAKYQALWAQASEFEAKSKSGKTVRIKFYQADGNVLRATVEYL
# Key:
# Test in all cases: glycan array binding signal (z-score within array); higher = stronger binding
# Settings in all cases: glycan notation: IUPAC condensed, linker removed
# [1] = target: Gal(b1-3)GlcNAc(b1-3)Gal(b1-4)[Fuc(a1-3)]GlcNAc(b1-6)[Gal(b1-3)GlcNAc(b1-3)]Gal(b1-4)Glc
# Method in brief: (§1)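 From the Consortium for Functional Glycomics database, 3228 arrays were curated, keeping only those whose protein sequence was available. Binding is given as a within-array Z-score averaged across arrays sharing a protein sequence and across linkers. Negative Z-scores can be read as non-binding.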
# [2] = target: Gal(b1-3)GlcNAc(b1-3)GalNAc
# Method in brief: as §1
# [3] = target: Gal(b1-3)GlcNAc(b1-6)Gal(b1-4)GlcNAc
# Method in brief: as §1
# [4] = target: Gal(b1-3)[Fuc(a1-4)]GlcNAc
# Method in brief: as §1
# [5] = target: Gal(b1-3)[Fuc(a1-4)]GlcNAc(b1-2)Man(a1-3)[Gal(b1-3)[Fuc(a1-4)]GlcNAc(b1-2)Man(a1-6)]Man(b1-4)GlcNAc(b1-4)GlcNAc
# Method in brief: as §1
# [6] = target: Gal(b1-3)[Fuc(a1-4)]GlcNAc(b1-2)Man(a1-3)[Gal(b1-3)[Fuc(a1-4)]GlcNAc(b1-2)Man(a1-6)]Man(b1-4)GlcNAc(b1-4)[Fuc(a1-6)]GlcNAc
# Method in brief: as §1
# [7] = target: Gal(b1-3)[Fuc(a1-4)]GlcNAc(b1-3)Gal(b1-3)[Fuc(a1-4)]GlcNAc
# Method in brief: as §1
# [8] = target: Gal(b1-3)[Fuc(a1-4)]GlcNAc(b1-3)Gal(b1-4)GlcNAc
# Method in brief: as §1
# [9] = target: Gal(b1-3)[Fuc(a1-4)]GlcNAc(b1-3)Gal(b1-4)[Fuc(a1-3)]GlcNAc
# Method in brief: as §1
# [10] = target: Gal(b1-3)[GlcNAc(b1-6)]GalNAc
# Method in brief: as §1
# [11] = target: Gal(b1-3)[Neu5Ac(a2-6)]GalNAc
# Method in brief: as §1
# [12] = target: Gal(b1-3)[Neu5Ac(a2-6)]GlcNAc(b1-6)Gal(b1-4)Glc
# Method in brief: as §1
# [13] = target: Gal(b1-3)[Neu5Ac(b2-6)]GalNAc
# Method in brief: as §1
# Gal(b1-4)Gal = target: Gal(b1-4)Gal
# Method in brief: as §1
# [14] = target: Gal(b1-4)GalNAc(a1-3)[Fuc(a1-2)]Gal(b1-4)GlcNAc
# Method in brief: as §1
# [15] = target: Gal(b1-4)GalNAc(b1-3)[Fuc(a1-2)]Gal(b1-4)GlcNAc
# Method in brief: as §1
# Gal(b1-4)Glc = target: Gal(b1-4)Glc
# Method in brief: as §1
# Gal(b1-4)Glc6S = target: Gal(b1-4)Glc6S
# Method in brief: as §1
# Gal(b1-4)GlcNAc = target: Gal(b1-4)GlcNAc
# Method in brief: as §1
# [16] = target: Gal(b1-4)GlcNAc(a1-6)Gal(b1-4)GlcNAc
# Method in brief: as §1
# [17] = target: Gal(b1-4)GlcNAc(b1-2)Man(a1-3)Man(b1-4)GlcNAc(b1-4)GlcNAc
# Method in brief: as §1
# [18] = target: Gal(b1-4)GlcNAc(b1-2)Man(a1-3)[Gal(b1-4)GlcNAc(b1-2)Man(a1-6)]Man(b1-4)GlcNAc(b1-4)GlcNAc
# Method in brief: as §1
# [19] = target: Gal(b1-4)GlcNAc(b1-2)Man(a1-3)[Gal(b1-4)GlcNAc(b1-2)Man(a1-6)]Man(b1-4)GlcNAc(b1-4)[Fuc(a1-6)]GlcNAc
# Method in brief: as §1
# [20] = target: Gal(b1-4)GlcNAc(b1-2)Man(a1-3)[Gal(b1-4)GlcNAc(b1-2)][GlcNAc(b1-4)]Man(b1-4)GlcNAc(b1-4)GlcNAc
# Method in brief: as §1
# [21] = target: Gal(b1-4)GlcNAc(b1-2)Man(a1-3)[GlcNAc(b1-2)Man(a1-6)]Man(b1-4)GlcNAc(b1-4)GlcNAc
# Method in brief: as §1
# [22] = target: Gal(b1-4)GlcNAc(b1-2)Man(a1-3)[Man(a1-6)]Man(b1-4)GlcNAc(b1-4)GlcNAc
# Method in brief: as §1
# [23] = target: Gal(b1-4)GlcNAc(b1-2)Man(a1-6)Man(b1-4)GlcNAc(b1-4)GlcNAc
# Method in brief: as §1
# [24] = target: Gal(b1-4)GlcNAc(b1-2)Man(a1-6)[GlcNAc(b1-2)Man(a1-3)]Man(b1-4)GlcNAc(b1-4)GlcNAc
# Method in brief: as §1
# [25] = target: Gal(b1-4)GlcNAc(b1-2)Man(a1-6)[Man(a1-3)]Man(b1-4)GlcNAc(b1-4)GlcNAc
# Method in brief: as §1
# [26] = target: Gal(b1-4)GlcNAc(b1-2)[Gal(b1-4)GlcNAc(b1-4)]Man(a1-3)[Gal(b1-4)GlcNAc(b1-2)Man(a1-6)]Man(b1-4)GlcNAc(b1-4)GlcNAc
# Method in brief: as §1
# [27] = target: Gal(b1-4)GlcNAc(b1-2)[Gal(b1-4)GlcNAc(b1-4)]Man(a1-3)[Gal(b1-4)GlcNAc(b1-2)[Gal(b1-4)GlcNAc(b1-6)]Man(a1-6)]Man(b1-4)GlcNAc(b1-4)GlcNAc
# Method in brief: as §1
# [28] = target: Gal(b1-4)GlcNAc(b1-2)[Gal(b1-4)GlcNAc(b1-4)]Man(a1-3)[GlcNAc(b1-4)][Gal(b1-4)GlcNAc(b1-2)Man(a1-6)]Man(b1-4)GlcNAc(b1-4)GlcNAc
# Method in brief: as §1
# [29] = target: Gal(b1-4)GlcNAc(b1-2)[Gal(b1-4)GlcNAc(b1-6)]Man(a1-6)[GlcNAc(b1-4)][Gal(b1-4)GlcNAc(b1-2)Man(a1-3)]Man(b1-4)GlcNAc(b1-4)GlcNAc
# Method in brief: as §1
# [30] = target: Gal(b1-4)GlcNAc(b1-3)Gal(b1-3)GlcNAc
# Method in brief: as §1
# [31] = target: Gal(b1-4)GlcNAc(b1-3)Gal(b1-4)Glc
# Method in brief: as §1
# [32] = target: Gal(b1-4)GlcNAc(b1-3)Gal(b1-4)GlcNAc
# Method in brief: as §1
# [33] = target: Gal(b1-4)GlcNAc(b1-3)Gal(b1-4)GlcNAc(b1-3)Gal(b1-4)GlcNAc
# Method in brief: as §1
# [34] = target: Gal(b1-4)GlcNAc(b1-3)Gal(b1-4)[Fuc(a1-3)GlcNAc(b1-6)]Gal(b1-4)Glc
# Method in brief: as §1
# [35] = target: Gal(b1-4)GlcNAc(b1-3)Gal(b1-4)[Fuc(a1-3)]GlcNAc(b1-3)Gal(b1-4)[Fuc(a1-3)]GlcNAc
# Method in brief: as §1
# [36] = target: Gal(b1-4)GlcNAc(b1-3)GalNAc
# Method in brief: as §1
# [37] = target: Gal(b1-4)GlcNAc(b1-3)[Gal(b1-4)GlcNAc(b1-6)]Gal(b1-4)GlcNAc
# Method in brief: as §1
# [38] = target: Gal(b1-4)GlcNAc(b1-3)[Gal(b1-4)GlcNAc(b1-6)]GalNAc
# Method in brief: as §1
# [39] = target: Gal(b1-4)GlcNAc(b1-3)[GlcNAc(b1-6)]Gal(b1-4)GlcNAc
# Method in brief: as §1
# [40] = target: Gal(b1-4)GlcNAc(b1-6)Gal(b1-4)GlcNAc
# Method in brief: as §1
# [41] = target: Gal(b1-4)GlcNAc(b1-6)GalNAc
# Method in brief: as §1
binder,measurement,setting,value
B1,glycan array binding signal (z-score),[1],-0.238
same,glycan array binding signal (z-score),[2],2.1
same,glycan array binding signal (z-score),[3],-0.249
same,glycan array binding signal (z-score),[4],-0.231
same,glycan array binding signal (z-score),[5],0.127
same,glycan array binding signal (z-score),[6],-0.07
same,glycan array binding signal (z-score),[7],-0.171
same,glycan array binding signal (z-score),[8],-0.252
same,glycan array binding signal (z-score),[9],-0.248
same,glycan array binding signal (z-score),[10],1.91
same,glycan array binding signal (z-score),[11],4.09
same,glycan array binding signal (z-score),[12],-0.258
same,glycan array binding signal (z-score),[13],-0.25
same,glycan array binding signal (z-score),Gal(b1-4)Gal,-0.212
same,glycan array binding signal (z-score),[14],-0.225
same,glycan array binding signal (z-score),[15],-0.229
same,glycan array binding signal (z-score),Gal(b1-4)Glc,-0.217
same,glycan array binding signal (z-score),Gal(b1-4)Glc6S,-0.214
same,glycan array binding signal (z-score),Gal(b1-4)GlcNAc,-0.237
same,glycan array binding signal (z-score),[16],-0.253
same,glycan array binding signal (z-score),[17],-0.2
same,glycan array binding signal (z-score),[18],-0.224
same,glycan array binding signal (z-score),[19],-0.213
same,glycan array binding signal (z-score),[20],-0.232
same,glycan array binding signal (z-score),[21],-0.2
same,glycan array binding signal (z-score),[22],-0.084
same,glycan array binding signal (z-score),[23],-0.227
same,glycan array binding signal (z-score),[24],-0.245
same,glycan array binding signal (z-score),[25],-0.206
same,glycan array binding signal (z-score),[26],-0.259
same,glycan array binding signal (z-score),[27],-0.243
same,glycan array binding signal (z-score),[28],0.077
same,glycan array binding signal (z-score),[29],-0.22
same,glycan array binding signal (z-score),[30],-0.239
same,glycan array binding signal (z-score),[31],-0.235
same,glycan array binding signal (z-score),[32],-0.242
same,glycan array binding signal (z-score),[33],-0.259
same,glycan array binding signal (z-score),[34],-0.249
same,glycan array binding signal (z-score),[35],-0.206
same,glycan array binding signal (z-score),[36],0.987
same,glycan array binding signal (z-score),[37],-0.264
same,glycan array binding signal (z-score),[38],-0.246
same,glycan array binding signal (z-score),[39],-0.251
same,glycan array binding signal (z-score),[40],-0.224
same,glycan array binding signal (z-score),[41],-0.217
